Screen size: about 310,000 compounds; about 2,200 (0.71%) showed an effect of 50% or more. Effects have a minus sign here. This is one part of the list.
These compounds were tested against human ether-à-go-go-related gene (hERG) potassium channel (human, UniProt Q12809) (assay: primary screen, population patch clamp on CHO cells stably expressing hERG).
Chain of human ether-à-go-go-related gene (hERG) potassium channel (Q12809 whole entry, looked up): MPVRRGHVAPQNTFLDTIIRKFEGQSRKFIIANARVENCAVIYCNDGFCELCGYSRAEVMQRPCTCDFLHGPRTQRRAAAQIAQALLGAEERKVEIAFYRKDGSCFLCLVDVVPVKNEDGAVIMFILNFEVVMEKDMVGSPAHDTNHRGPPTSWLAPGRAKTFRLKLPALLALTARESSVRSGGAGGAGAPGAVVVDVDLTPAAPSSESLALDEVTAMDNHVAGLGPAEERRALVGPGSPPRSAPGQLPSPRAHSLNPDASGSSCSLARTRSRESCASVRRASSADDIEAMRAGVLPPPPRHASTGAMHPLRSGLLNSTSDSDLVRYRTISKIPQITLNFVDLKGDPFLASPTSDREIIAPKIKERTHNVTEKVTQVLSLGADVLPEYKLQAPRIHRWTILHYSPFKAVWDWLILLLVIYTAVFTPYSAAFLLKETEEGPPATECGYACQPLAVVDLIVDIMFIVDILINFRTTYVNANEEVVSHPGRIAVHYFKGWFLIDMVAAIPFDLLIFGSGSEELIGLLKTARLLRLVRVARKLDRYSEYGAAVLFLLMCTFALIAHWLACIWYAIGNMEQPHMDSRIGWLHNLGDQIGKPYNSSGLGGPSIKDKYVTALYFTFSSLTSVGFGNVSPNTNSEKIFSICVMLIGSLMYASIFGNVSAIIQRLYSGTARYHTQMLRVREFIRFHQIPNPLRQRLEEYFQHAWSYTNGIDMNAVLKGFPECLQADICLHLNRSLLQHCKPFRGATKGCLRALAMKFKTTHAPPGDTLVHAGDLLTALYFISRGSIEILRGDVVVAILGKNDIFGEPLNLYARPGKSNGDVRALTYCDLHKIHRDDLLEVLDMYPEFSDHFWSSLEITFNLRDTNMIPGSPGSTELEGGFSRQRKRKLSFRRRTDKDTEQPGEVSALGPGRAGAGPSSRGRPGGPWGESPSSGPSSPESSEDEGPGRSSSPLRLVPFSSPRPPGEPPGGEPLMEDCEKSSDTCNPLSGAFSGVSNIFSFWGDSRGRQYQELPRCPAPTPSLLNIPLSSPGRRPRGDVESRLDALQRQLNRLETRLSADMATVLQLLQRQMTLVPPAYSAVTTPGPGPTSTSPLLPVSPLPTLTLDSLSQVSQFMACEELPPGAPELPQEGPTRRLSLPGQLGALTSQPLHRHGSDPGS
With Nn1c(Nc2ccccc2)nc2ccccc21 the “hERG current change (%, negative = inhibition) at 1uM” value was 7.31%.
In the case of CCCCOC(=O)Nc1nc2ccc(OC)cc2s1, the “hERG current change (%, negative = inhibition) at 1uM” value is reported as 12.6%.
In the case of CCOP(=S)(OCC)SCOC(=O)NCC(=O)OC, the “hERG current change (%, negative = inhibition) at 1uM” value is reported as 12.7%.
In the case of CC(C)Nc1nnc(SCC(=O)Nc2sccc2C#N)s1, the “hERG current change (%, negative = inhibition) at 1uM” value is reported as 5.02%.
In the case of Cc1ccc(Nc2nc3nonc3[nH]c2=O)cc1C, the “hERG current change (%, negative = inhibition) at 1uM” value is reported as 7.21%.
In the case of COc1ccc(C(=O)n2c(N)nc3ccccc32)cc1OC.Cl, the “hERG current change (%, negative = inhibition) at 1uM” value is reported as 21.9%.
In the case of CN(C)S(=O)(=O)c1ccc(C(=O)NCCc2ccco2)cc1, the “hERG current change (%, negative = inhibition) at 1uM” value is reported as 11%.
COc1ccc(OC)c(S(=O)(=O)N2CCC(C(=O)Nc3cc(C)ccc3C)CC2)c1 was tested, and the “hERG current change (%, negative = inhibition) at 1uM” value was 8.13%.
For CC(=O)Nc1ccc(-c2sc(Nc3cccc4ccccc34)n[n+]2-c2ccccc2)cc1.[Cl-], the “hERG current change (%, negative = inhibition) at 1uM” value was 10.1%.
In the case of O=c1[nH]c(=O)n(C2CCCCC2)c(O)c1C1NCCc2ccccc21 (centres unmarked), the “hERG current change (%, negative = inhibition) at 1uM” value is reported as 16.8%.
For Cc1ccccc1-c1nc(CS(=O)(=O)CC(=O)NCc2ccco2)c(C)o1, the “hERG current change (%, negative = inhibition) at 1uM” value was -9.71%.
In the case of O=C(NCCOc1ccccc1)c1ccccc1Cl, the “hERG current change (%, negative = inhibition) at 1uM” value is reported as 0.854%.
O=C(NCCOC(=O)c1cccs1)c1cccnc1 was tested, and the “hERG current change (%, negative = inhibition) at 1uM” value was 8.72%.
For CC(C)(CNC(=O)Cc1ccc(Cl)cc1Cl)N1CCCCC1, the “hERG current change (%, negative = inhibition) at 1uM” value was 17.9%.
FC(F)(F)c1ccccc1NC(=S)N1CCN(Cc2ccc3c(c2)OCO3)CC1 was tested, and the “hERG current change (%, negative = inhibition) at 1uM” value was 6.32%.
O=C(NCCc1ccc(Cl)cc1)Nc1cccc(Cl)c1 was tested, and the “hERG current change (%, negative = inhibition) at 1uM” value was 9.78%.
For CN1CCN(c2ccc(C(=O)c3ccc(Br)cc3)cc2[N+](=O)[O-])CC1, the “hERG current change (%, negative = inhibition) at 1uM” value was -19.3%.
In the case of O=C(c1cc2cc(Br)ccc2[nH]1)N1CCC2(CC1)OCCO2, the “hERG current change (%, negative = inhibition) at 1uM” value is reported as 11.7%.
With COc1cccc(-c2nnc(NC(=O)c3ccccc3Br)o2)c1 the “hERG current change (%, negative = inhibition) at 1uM” value was 2.44%.
In the case of COCCn1c(=O)[nH]c2cc(C(=O)NCCc3ccc(OC)c(OC)c3)ccc2c1=O, the “hERG current change (%, negative = inhibition) at 1uM” value is reported as 11.3%.
CC(=O)Nc1ccccc1C(=O)C(=O)Nc1cccc(F)c1 was tested, and the “hERG current change (%, negative = inhibition) at 1uM” value was 3.64%.
With Cc1nc(Nc2ccc(Cl)c(Cl)c2)sc1C(=O)Nc1ccccc1 the “hERG current change (%, negative = inhibition) at 1uM” value was 4.02%.
In the case of CC(c1ccco1)N(Cc1ccco1)C(=O)Nc1ccccc1 (centres unmarked), the “hERG current change (%, negative = inhibition) at 1uM” value is reported as 17.9%.
In the case of Clc1ccc(-c2noc(CSc3nnc(-c4ccncc4)n3-c3ccccc3)n2)cc1, the “hERG current change (%, negative = inhibition) at 1uM” value is reported as -4.52%.
In the case of CCC1CCCCN1CC(O)COCc1cccc(OC)c1 (centres unmarked), the “hERG current change (%, negative = inhibition) at 1uM” value is reported as 11.4%.
With O=C(COC(=O)COc1cccc(Br)c1)Nc1c(Cl)cccc1Cl the “hERG current change (%, negative = inhibition) at 1uM” value was 2.4%.
In the case of CN(C)c1ccc(C(CNS(=O)(=O)c2ccc(F)c(F)c2)c2c[nH]c3ccccc23)cc1 (centres unmarked), the “hERG current change (%, negative = inhibition) at 1uM” value is reported as 8.31%.
For COC(=O)C1=C(c2cccc(OC)c2OC)C[C@@H]2CC[C@H]1N2C(=O)NCCS(C)=O (some centres unmarked), the “hERG current change (%, negative = inhibition) at 1uM” value was 8.02%.
In the case of COc1ccccc1N=c1oc2cc(O)ccc2cc1C(N)=O, the “hERG current change (%, negative = inhibition) at 1uM” value is reported as 1.32%.
In the case of O=C(CCc1nnc2ccc(NCc3ccc(Cl)cc3)nn12)NC1CCCCC1, the “hERG current change (%, negative = inhibition) at 1uM” value is reported as 4.16%.
For O=C(/C=C/c1cc([N+](=O)[O-])ccc1OC(F)F)NCc1ccc(F)cc1, the “hERG current change (%, negative = inhibition) at 1uM” value was -2.89%.
CCOc1ccc(CC(=O)Nc2cc(=O)n(C)c(=O)n2C)cc1 was tested, and the “hERG current change (%, negative = inhibition) at 1uM” value was 18.2%.
For O=C(Nc1cc(Cl)cc(Cl)c1)C1CCC(=O)N1Cc1ccccc1Cl (centres unmarked), the “hERG current change (%, negative = inhibition) at 1uM” value was 10.4%.
In the case of Cc1cc(=O)oc2cc(OCC(=O)Nc3nnc(C(C)C)s3)ccc12, the “hERG current change (%, negative = inhibition) at 1uM” value is reported as 18%.
In the case of COc1cc2cc(C(c3nnnn3C(C)(C)C)N3CCC(C)CC3)c(=O)[nH]c2cc1OC (centres unmarked), the “hERG current change (%, negative = inhibition) at 1uM” value is reported as -1.68%.
Cc1ccc(CN(c2ccc(C(=O)N3CCc4ccccc4C3)cc2)S(C)(=O)=O)cc1 was tested, and the “hERG current change (%, negative = inhibition) at 1uM” value was 6.97%.
For C/C=C/C=C\C(=O)Nc1cccc(C2=NOC3(C2)C[C@H](C(N)=O)N(C(=O)CC#N)C3)c1 (some centres unmarked), the “hERG current change (%, negative = inhibition) at 1uM” value was 3.43%.
For Cc1nn(CC(=O)NCCCN2CCN(C)CC2)c(=O)c2cc(-c3ccccc3)nn12, the “hERG current change (%, negative = inhibition) at 1uM” value was 12.5%.
In the case of CCNc1ccccc1C(=O)O, the “hERG current change (%, negative = inhibition) at 1uM” value is reported as 5.34%.
With CC(C)N(CCNC(=O)c1ccc(CS(=O)(=O)c2c(Cl)cccc2Cl)o1)Cc1ccccc1 the “hERG current change (%, negative = inhibition) at 1uM” value was -3.94%.
In the case of CCC(Cc1ccccc1)NC(=O)CCc1ccccc1 (centres unmarked), the “hERG current change (%, negative = inhibition) at 1uM” value is reported as 12.9%.
In the case of S=c1[nH]c2ccccc2c2ccccc12, the “hERG current change (%, negative = inhibition) at 1uM” value is reported as 15.2%.
With COc1ccc(/C=C/C(=O)Nc2ccc3c(c2)CCC3)cc1OC the “hERG current change (%, negative = inhibition) at 1uM” value was 7.46%.
For CCOc1ccc(C(=O)NC(=S)NCCCN2CCOCC2)cc1, the “hERG current change (%, negative = inhibition) at 1uM” value was -26.5%.

— article PMC4336329 (PLoS ONE, 2015)
